According to the supplement of paper PMC6531468:
Some of the results follow. These are enrichments in a pooled selection; single values are uncertain. Each score is taken over the longer molecules that contain the sequence shown.

Columns and labels:
Assay in all cases: 6-mer SELEX enrichment z-score vs GST control; IMP3 is the RNA-binding protein IGF2BP3; higher = more enriched by binding
[1] = tested on: IMP3 KH1-4; settings: construct: KH1-4 (164-579); SELEX round: R4
Protocol: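 SELEX-seq with GST-tagged IMP3 KH1-4 (Pro164-Lys579) and an N40 RNA pool, round 4. 6-mer z-score of sequence-tag enrichment normalised to the corresponding GST SELEX round; RNA k-mers written as DNA (T for U).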

[2] = tested on: IMP3 RRM1-2; settings: construct: RRM1-2 (1-163); SELEX round: R2
Protocol: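 SELEX-seq with GST-tagged IMP3 RRM1-2 (Met1-Asn163) and an N40 RNA pool, round 2. 6-mer enrichment z-score normalised to GST SELEX. RNA written as DNA (T = U).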

[3] = biological target: IMP3 full-length (UniProt O00425); settings: construct: FL IMP3 (1-579); SELEX round: R4
Protocol: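 SELEX-seq with GST-tagged full-length IMP3 and an N40 RNA pool, round 4. Each 6-mer is scored as an enrichment z-score of sequence tags containing it, normalised to the matching GST SELEX round. RNA written as DNA (T = U).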

[4] = tested on: IMP3 KH1-2; settings: construct: KH1-2 (164-376); SELEX round: R4
Protocol: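 SELEX-seq with GST-tagged IMP3 KH1-2 (Pro164-Phe376) and an N40 RNA pool, round 4 (stringent 300/600 mM KCl washes). 6-mer z-score of sequence-tag enrichment normalised to the corresponding GST SELEX round; RNA k-mers written as DNA (T for U).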

[5] = tested on: IMP3 KH3-4; settings: construct: KH3-4 (377-579); SELEX round: R4
Protocol: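 SELEX-seq with GST-tagged IMP3 KH3-4 (Pro377-Lys579) and an N40 RNA pool, round 4. 6-mer z-score of sequence-tag enrichment normalised to the corresponding GST SELEX round; RNA k-mers written as DNA (T for U).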

IMP3 KH1-2, sequence (chain, as listed by the source): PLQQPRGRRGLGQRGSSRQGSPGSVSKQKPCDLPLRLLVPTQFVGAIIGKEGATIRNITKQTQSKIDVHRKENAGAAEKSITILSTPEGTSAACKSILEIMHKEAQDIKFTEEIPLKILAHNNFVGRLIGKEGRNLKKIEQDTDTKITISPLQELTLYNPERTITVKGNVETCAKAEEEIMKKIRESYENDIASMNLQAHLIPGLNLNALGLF
IMP3 KH3-4, sequence (chain, as listed by the source): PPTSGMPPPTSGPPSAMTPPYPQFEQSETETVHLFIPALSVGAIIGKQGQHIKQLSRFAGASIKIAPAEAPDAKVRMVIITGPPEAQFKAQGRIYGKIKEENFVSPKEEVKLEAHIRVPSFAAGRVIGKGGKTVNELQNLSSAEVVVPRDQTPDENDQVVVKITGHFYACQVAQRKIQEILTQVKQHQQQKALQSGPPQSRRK
IMP3 RRM1-2, sequence (chain, as listed by the source): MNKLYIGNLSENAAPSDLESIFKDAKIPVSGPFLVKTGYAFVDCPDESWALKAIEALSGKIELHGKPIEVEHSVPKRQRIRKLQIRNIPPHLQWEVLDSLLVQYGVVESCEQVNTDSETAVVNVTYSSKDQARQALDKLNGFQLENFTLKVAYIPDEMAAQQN
IMP3 KH1-4, sequence (chain, as listed by the source): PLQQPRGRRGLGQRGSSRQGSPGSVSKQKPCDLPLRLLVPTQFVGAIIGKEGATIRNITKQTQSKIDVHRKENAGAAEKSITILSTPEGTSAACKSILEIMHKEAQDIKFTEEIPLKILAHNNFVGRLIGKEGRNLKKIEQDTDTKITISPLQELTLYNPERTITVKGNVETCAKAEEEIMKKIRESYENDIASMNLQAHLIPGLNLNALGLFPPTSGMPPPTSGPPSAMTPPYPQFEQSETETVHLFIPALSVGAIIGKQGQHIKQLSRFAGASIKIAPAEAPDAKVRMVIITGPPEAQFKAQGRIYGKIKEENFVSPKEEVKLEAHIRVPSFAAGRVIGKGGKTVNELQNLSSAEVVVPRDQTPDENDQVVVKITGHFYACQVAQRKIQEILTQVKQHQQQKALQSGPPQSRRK
UniProt O00425, sequence (O00425 whole entry): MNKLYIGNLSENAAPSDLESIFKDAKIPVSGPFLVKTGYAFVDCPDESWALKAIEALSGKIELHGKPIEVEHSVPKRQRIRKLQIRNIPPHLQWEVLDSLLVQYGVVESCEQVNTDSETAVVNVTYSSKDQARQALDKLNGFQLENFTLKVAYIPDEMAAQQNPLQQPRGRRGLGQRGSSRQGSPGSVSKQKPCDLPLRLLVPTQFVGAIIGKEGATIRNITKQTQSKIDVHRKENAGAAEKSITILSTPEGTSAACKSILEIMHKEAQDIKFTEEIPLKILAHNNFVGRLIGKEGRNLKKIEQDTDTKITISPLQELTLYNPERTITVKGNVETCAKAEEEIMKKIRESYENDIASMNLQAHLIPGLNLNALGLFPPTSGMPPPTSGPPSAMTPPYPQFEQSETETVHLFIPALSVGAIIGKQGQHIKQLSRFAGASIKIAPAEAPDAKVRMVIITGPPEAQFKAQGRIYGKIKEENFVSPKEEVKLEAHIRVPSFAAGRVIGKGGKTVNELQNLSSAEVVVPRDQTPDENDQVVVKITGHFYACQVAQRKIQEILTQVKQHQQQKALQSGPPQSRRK

Row | Sequence | 6-mer SELEX enrichment z-score [1] | 6-mer SELEX enrichment z-score [2] | 6-mer SELEX enrichment z-score [3] | 6-mer SELEX enrichment z-score [4] | 6-mer SELEX enrichment z-score [5]
1 | TCGTAT | -0.095 | 0.286 | -0.124 | -0.112 | 0.011
2 | GGGACC | -0.833 | -0.089 | -0.222 | -0.611 | -0.842
3 | GGAAGC | -0.328 | -0.427 | -0.191 | -0.213 | -0.276
4 | GGTCCC | -0.714 | 0.091 | 0.082 | -0.582 | -0.842
5 | GACCAG | -0.442 | -0.726 | -0.508 | -0.476 | -0.741
6 | TACTTC | 0.394 | 0.329 | 0.035 | 0.468 | 0.272
7 | TTTGCG | -0.397 | 0.235 | -0.312 | -0.321 | -0.158
8 | CTCGAA | -2.12 | -0.543 | -1.27 | -1.91 | -1.89
9 | AGTCAT | 0.616 | 0.484 | 0.715 | 0.347 | 0.508
10 | CTCAGC | -1.22 | 0.552 | 0.036 | -0.977 | -1.08
11 | CTAAAC | -0.726 | -0.869 | -1.51 | -0.659 | -0.805
12 | CCCGTT | -0.242 | -0.195 | -0.194 | -0.161 | -0.467
13 | GCCCTC | -0.668 | 0.022 | -0.304 | -0.503 | -0.967
14 | TCCGTA | -0.218 | -0.126 | -0.115 | -0.071 | -0.325
15 | AGTGTG | -0.31 | -0.055 | -0.604 | -0.464 | -0.285
16 | GACCCA | -2.15 | -1.03 | -1.64 | -2.01 | -2.68
17 | GACATC | -0.13 | 0.489 | 0.612 | -0.323 | -0.603
18 | TCCGCC | 0.349 | -0.276 | 0.152 | 0.499 | -0.563
19 | TTTATT | 1.39 | 0.44 | 0.473 | 1.27 | 1.87
20 | TGCCGT | -0.271 | -0.079 | -0.09 | -0.217 | -0.294
21 | GCGGGA | 0.111 | -0.323 | 0.477 | 0.333 | 0.257
22 | AGTAGG | 0.254 | 0.346 | 0.258 | 0.22 | 0.416

Row | Sequence | 6-mer SELEX enrichment z-score [1] | 6-mer SELEX enrichment z-score [2] | 6-mer SELEX enrichment z-score [3] | 6-mer SELEX enrichment z-score [4] | 6-mer SELEX enrichment z-score [5]
23 | GATCGG | 0.663 | -0.071 | 0.904 | 0.344 | 0.697
24 | GACGCT | -0.5 | -0.3 | -0.204 | -0.379 | -0.378
25 | TACAAC | 0.803 | 0.769 | 0.565 | 1.19 | 0.571
26 | CGCATC | 0.765 | 0.358 | 1.53 | 0.482 | -0.152
27 | TCCGAA | -1.31 | -1.06 | -1.12 | -1.07 | -1.38
28 | TACTTT | 0.668 | 0.248 | 0.069 | 0.734 | 0.846
29 | ATGTCT | -0.178 | 0.306 | 0.074 | -0.126 | -0.042
30 | GAAAAG | -0.406 | -2.01 | -1.45 | -0.599 | 0.222
31 | GGGCGA | -0.871 | -0.145 | 0.143 | -0.518 | -0.45
32 | GAAGGT | 0.058 | -0.236 | -0.033 | 0.066 | 0.222
33 | CCTGCC | -1.15 | -0.621 | -1.01 | -0.914 | -1.59
34 | GTTATC | -0.215 | 0.346 | -0.067 | -0.218 | -0.17
35 | CGATGG | 0.002 | -0.275 | 0.039 | 0.02 | 0.006
36 | CTTATA | 1.1 | 0.062 | 0.184 | 1.02 | 1.36
37 | ATCACT | 1.39 | 2.21 | 1.41 | 1.31 | 0.861
38 | CTCCTC | 0.092 | 0.232 | -0.136 | 0.143 | -0.404
39 | TTCCTC | 0.999 | 0.156 | 0.092 | 0.908 | 0.263
40 | GGCCCG | -0.546 | -0.315 | 0.203 | -0.276 | -0.735
41 | GTCCTT | 0.284 | 0.164 | 0.013 | 0.173 | 0.159
42 | CTGCTG | 0.31 | 0.121 | -0.004 | 0.314 | -0.027
43 | TGAGTG | -0.988 | -0.151 | -0.885 | -0.971 | -0.753
44 | TCTAAG | -0.23 | -0.134 | -0.346 | -0.285 | -0.123

Row | Sequence | 6-mer SELEX enrichment z-score [1] | 6-mer SELEX enrichment z-score [2] | 6-mer SELEX enrichment z-score [3] | 6-mer SELEX enrichment z-score [4] | 6-mer SELEX enrichment z-score [5]
45 | GTAACT | -0.446 | -0.324 | -0.579 | -0.415 | -0.339
46 | CTGGGT | -0.171 | 0.332 | 0.104 | -0.045 | 0.021
47 | TTTCTA | 0.677 | 0.388 | 0.181 | 0.742 | 0.873
48 | CGTCAA | -0.981 | 0.008 | 0.071 | -0.956 | -0.946
49 | CGTAAT | -0.527 | -0.43 | -0.507 | -0.517 | -0.358
50 | TGTCCA | 0.162 | 0.009 | -0.228 | -0.051 | -0.27
51 | TTTCAA | 0.599 | 0.772 | 0.596 | 0.842 | 0.777
52 | TCTTCG | -0.192 | 0.402 | 0.024 | -0.142 | -0.125
53 | CTTTAC | 0.617 | 0.061 | -0.114 | 0.71 | 0.48
54 | CGGAAC | -0.539 | -0.841 | -0.211 | -0.705 | -0.746
55 | AGTTTT | -0.026 | 0.34 | -0.082 | 0.032 | 0.278
56 | TCCATT | 0.981 | 0.65 | 0.558 | 0.921 | 0.72
57 | CCTGCT | -0.273 | -0.048 | -0.335 | -0.221 | -0.387
58 | TTCGCC | 0.161 | -0.006 | -0.124 | 0.052 | -0.32
59 | GTAGCC | -1.17 | -0.226 | -0.63 | -1.17 | -1.13
60 | GGAGGG | 1.39 | -0.048 | 0.679 | 1.71 | 1.29
61 | GTAGCA | -0.274 | 0.161 | 0.159 | -0.369 | -0.317
62 | TTAGAC | 0.253 | -0.226 | -0.28 | 0.168 | 0.382
63 | ACTCAG | -0.954 | 0.617 | -0.077 | -0.816 | -0.901
64 | ACGAGT | -1.79 | -0.397 | -0.904 | -1.73 | -1.51
65 | ATGATC | 0.941 | -0.033 | 0.202 | 0.556 | 0.815
